Hit rate of the full screen: of about 110,000 compounds, about 230 (0.21%) showed an effect of 50% or more. The list shows a part of the results.
Target: DPAP1 (Plasmodium falciparum, UniProt Q8IIJ9)
Assay: primary screen, percent inhibition; read by cleavage of a fluorogenic dipeptide substrate; higher = more effect of the substance
Parameters: species or system P. falciparum D10 trophozoite lysates; single well
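Also: 30 min substrate incubation versus DMSO and 10 µM JCP410 controls.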

Chain of DPAP1 (Q8IIJ9 whole entry, looked up): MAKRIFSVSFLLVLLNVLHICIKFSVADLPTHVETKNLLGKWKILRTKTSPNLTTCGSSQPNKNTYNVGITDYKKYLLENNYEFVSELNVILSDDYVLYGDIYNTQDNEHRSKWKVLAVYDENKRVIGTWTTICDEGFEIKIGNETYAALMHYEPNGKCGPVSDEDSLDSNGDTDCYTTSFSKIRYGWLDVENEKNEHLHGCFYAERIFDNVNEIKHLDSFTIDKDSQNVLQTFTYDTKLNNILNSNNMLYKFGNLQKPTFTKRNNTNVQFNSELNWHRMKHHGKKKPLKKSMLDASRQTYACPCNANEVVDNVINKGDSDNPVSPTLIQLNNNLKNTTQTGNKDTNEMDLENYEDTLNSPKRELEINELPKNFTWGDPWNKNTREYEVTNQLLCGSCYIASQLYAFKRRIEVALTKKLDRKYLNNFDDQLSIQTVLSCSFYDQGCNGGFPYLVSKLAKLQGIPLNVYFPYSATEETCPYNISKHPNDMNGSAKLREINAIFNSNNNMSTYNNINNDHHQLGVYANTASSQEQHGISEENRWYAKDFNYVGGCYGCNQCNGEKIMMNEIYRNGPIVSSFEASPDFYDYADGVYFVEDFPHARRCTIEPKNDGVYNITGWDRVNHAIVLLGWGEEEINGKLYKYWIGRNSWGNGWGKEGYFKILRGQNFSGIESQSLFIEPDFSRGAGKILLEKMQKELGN

Row | Structure (SMILES) | % Inhibition @ 10 uM [%]
1 | O=C(CSc1nc(O)c2c(n1)CCN(Cc1ccccc1)C2)NCc1ccccc1 | 3.92
2 | CC1CCCC(C)N1C(CNS(=O)(=O)c1ccc(Cl)cc1)c1ccccc1 (stereo not drawn) | -0.671
3 | CCc1cccc2c(/C=C3\S/C(=N/C)N(C)C3=O)c[nH]c12 | -10.8
4 | COc1ccc(C(=O)NC2(C(F)(F)F)C(=O)Nc3c2c(=O)[nH]c(=O)n3-c2ccc(OC)cc2)cc1 (stereo not drawn) | -3.18
5 | O=S(=O)(Nc1cccc(-c2cn3cccnc3n2)c1)c1cccc2ccccc12 | -3.45
6 | CC(C)C(O)CN1C=C(C#N)C(=O)NC1NC1CCCCC1 (stereo not drawn) | 4.28
7 | O=S(=O)(Nc1nc2ccccc2nc1Nc1ccc(Cl)cc1)c1ccccc1 | 3.16
8 | CN1CCN(C(=O)CCN2C(=O)c3cccc4cccc(c34)C2=O)CC1 | -6.62
9 | CCc1cc(C)cc(OCCOc2ccc(/C=C3/C(=N)N4OC(C)=CC4=NC3=O)cc2OC)c1 | -5.1
10 | COc1cc(/C=C2/C(=N)N3C(SC)=NSC3=NC2=O)ccc1OC(C)C | 0.287
11 | O=C(O)[C@H]1CCCC[C@H]1C(=O)Nc1ccc(S(=O)(=O)N2CCc3ccccc32)cc1 | 2.67
12 | COc1ccc(S(=O)(=O)Nc2ccc(OC)cc2OC)cc1 | 2.08
13 | CCOc1ccc(CNC(=O)CN2C(=O)C(c3ccccc3)Oc3cccnc32)cc1 (stereo not drawn) | 8.35
14 | O=S(=O)(Nc1ccc(O)c(Br)c1)c1ccc(Cl)cc1 | 3.25
15 | Cn1c(-c2ccccc2)c(C(=O)C(=O)NC(C)(C)C)c2ccccc21 | -2.28
16 | COc1ccc(C(C)NC(=O)c2ccc(C)s2)cc1 (stereo not drawn) | 2.76
17 | CCN(CCN(C)C)CC1CC=CCC1 (stereo not drawn) | -1.64
18 | CO/C(O)=C1\C(C)=NC2=C(C(=O)c3ccccc32)C1c1ccccc1OC (stereo not drawn) | 2.09
19 | O=C(CCNC(=O)Cn1ccc2ccccc2c1=O)NCCCN1CCCC1=O | 2.73
20 | CC(=O)c1cc(-c2ccccc2)n(CCC(=O)NC(C)(C)C)c1C | -0.176
21 | COc1ccc(C(=O)N2CCN(C(=O)c3cc(OC)c(OC)c(OC)c3)CC2)cc1 | -1.43
22 | O=C(O)c1ccccc1C(=O)Nc1cc(Cl)c(Cl)cc1Cl | 1.62
23 | O=[N+]([O-])c1ccccc1CSc1nc2ccccc2s1 | -0.49
24 | O=C(NCc1ccccn1)C1CCCN(S(=O)(=O)N2CCCCCC2)C1 (stereo not drawn) | 1.76

Row | Structure (SMILES) | % Inhibition @ 10 uM [%]
25 | COc1ccc(N(C(C)C(=O)Nc2c(C)cccc2C)S(C)(=O)=O)cc1 (stereo not drawn) | -15.4
26 | COc1ccccc1C(=O)N1CCN(C(=O)c2cccc(F)c2)CC1 | 1.26
27 | COc1ccc(C(=O)Nc2ccc(N3CCN(Cc4ccccc4)CC3)cc2)cc1 | 3.91
28 | CCOc1ccc(CCN2C(=O)C3C4C=CC(C4)C3C2=O)cc1OCC (stereo not drawn) | 1.03
29 | CCC(Cc1ccccc1)NC(=O)C1CCN(S(=O)(=O)c2cccc3nsnc23)CC1 (stereo not drawn) | 0.208
30 | CN1CCN(c2ccc(NC(=O)COc3ccc(Br)cc3)cc2)CC1 | 9.5
31 | CCOc1ccc(C2C(C(=O)Nc3ccccc3C)=C(C)Nc3nc(CCCO)nn32)cc1 (stereo not drawn) | 2.4
32 | O=C(NCc1ccco1)C1CCCN(S(=O)(=O)c2ccc3nc(O)ccc3c2)C1 (stereo not drawn) | -6.47
33 | CC(=O)c1cc(-c2ccccc2)n(CCC(=O)NCCc2ccc(C)cc2)c1C | -1.88
34 | O=C(NCCC1=CCCCC1)C1CCCN(S(=O)(=O)c2ccc3[nH]c(-c4ccccc4)nc3c2)C1 (stereo not drawn) | -8.49
35 | CCOC(=O)C1=C(O)/C(=C\c2cc(C)n(-c3cc(C)ccc3OC)c2C)N=C1C | 3.47
36 | CCC(=O)C1=C(Nc2ccccc2C)CC(C)(C)CC1=O | -3.46
37 | N#Cc1cc2c(nc1SC1CC(=O)N(c3ccccc3)C1=O)CCCC2 (stereo not drawn) | -2.68
38 | CC(C)(C)C1CCc2c(sc(NC(=O)c3ccccc3)c2C#N)C1 (stereo not drawn) | 9.19
39 | Cc1cc2c(cc1C)-c1ccccc1C2=O | 3.05
40 | COc1ccc(-c2noc(C(C)NC(=O)c3ccco3)n2)cc1OC (stereo not drawn) | -0.946
41 | CCN(CC)S(=O)(=O)c1ccc(NC(=O)c2sc3cc(OC)ccc3c2Cl)cc1 | 0.658
42 | COc1ccc2nc(C)n3c4ccccc4c(NC(C)=O)c3c2c1 | 2.4
43 | O=C(NCCCN1CCc2ccccc2C1)C1CCN(c2nc3ccccc3n3cccc23)CC1 | 0.658
44 | C=CC1CCC(N(Cc2ccccc2)S(=O)(=O)c2ccc(C)cc2)C(O)C1 (stereo not drawn) | 0.611
45 | Cc1nc2ccccc2nc1C12CC3CC(CC(C3)C1)C2 | -4.23
46 | Cc1ccc(CN(Cc2ccco2)C(=O)COc2c(C)cccc2C)cc1 | -2.21
47 | Nc1nc2ccccc2n1CCN1CCOCC1 | -2.36
48 | C/N=C1/S/C(=C\c2ccc(OC)c3ccccc23)C(=O)N1C | -2.18
